# Test results reported in PMC4336329 (PLoS ONE, 2015).
# The whole screen tested about 310,000 compounds, of which about 14,000 (4.5%) showed an effect of 50% or more. Effects have a minus sign here. This is one part of the list.
# Target: human ether-à-go-go-related gene (hERG) potassium channel (human, UniProt Q12809)
# Test: primary screen, population patch clamp on CHO cells stably expressing hERG
# 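Note: peak tail current of the secondary pulse compared with the same well before compound.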
# Chain of human ether-à-go-go-related gene (hERG) potassium channel (Q12809 whole entry, looked up): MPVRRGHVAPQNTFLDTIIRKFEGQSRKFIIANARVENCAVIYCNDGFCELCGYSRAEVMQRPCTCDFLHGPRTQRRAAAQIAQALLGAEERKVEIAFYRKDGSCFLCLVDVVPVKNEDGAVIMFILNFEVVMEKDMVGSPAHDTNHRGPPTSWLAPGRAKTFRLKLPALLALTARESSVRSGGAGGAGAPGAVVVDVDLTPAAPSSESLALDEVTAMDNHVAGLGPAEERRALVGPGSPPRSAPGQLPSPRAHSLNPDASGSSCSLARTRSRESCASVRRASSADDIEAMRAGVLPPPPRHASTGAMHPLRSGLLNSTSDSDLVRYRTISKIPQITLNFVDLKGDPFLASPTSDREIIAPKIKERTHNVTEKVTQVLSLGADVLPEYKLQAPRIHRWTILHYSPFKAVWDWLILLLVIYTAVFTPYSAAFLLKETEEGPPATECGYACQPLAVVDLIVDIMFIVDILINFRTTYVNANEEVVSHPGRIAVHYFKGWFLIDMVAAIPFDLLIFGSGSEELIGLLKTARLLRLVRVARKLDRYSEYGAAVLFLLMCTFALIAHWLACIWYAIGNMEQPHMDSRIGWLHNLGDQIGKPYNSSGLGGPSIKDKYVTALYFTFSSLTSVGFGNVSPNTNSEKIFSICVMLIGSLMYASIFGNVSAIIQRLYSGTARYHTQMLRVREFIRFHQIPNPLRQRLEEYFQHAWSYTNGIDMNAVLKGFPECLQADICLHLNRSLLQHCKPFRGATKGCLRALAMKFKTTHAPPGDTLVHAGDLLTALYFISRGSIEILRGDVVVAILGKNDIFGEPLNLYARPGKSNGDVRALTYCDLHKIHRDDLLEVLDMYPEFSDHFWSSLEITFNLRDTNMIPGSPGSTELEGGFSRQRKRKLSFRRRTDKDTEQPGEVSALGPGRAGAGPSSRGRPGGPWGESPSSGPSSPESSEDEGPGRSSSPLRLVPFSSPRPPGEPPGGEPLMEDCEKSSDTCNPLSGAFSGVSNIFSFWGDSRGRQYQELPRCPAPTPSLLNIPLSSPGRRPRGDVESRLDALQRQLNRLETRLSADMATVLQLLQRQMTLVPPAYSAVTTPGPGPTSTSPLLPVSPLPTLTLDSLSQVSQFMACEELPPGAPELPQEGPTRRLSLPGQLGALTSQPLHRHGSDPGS
row,SMILES,"hERG current change (%, negative = inhibition) at 10uM"
1,CCOC(=O)c1ccc(NC(=O)NCc2ccccc2OC)cc1,-22.2%
2,CCC(=O)Nc1ccc(C(=O)N/N=C/c2ccccc2[N+](=O)[O-])cc1,14.1%
3,O=C(c1ccc(Cl)cc1)N1CCC(=O)N(C(CO)Cc2ccccc2)CC1 (centres unmarked),-12.6%
4,CS(=O)(=O)N1CCC(C(=O)Nc2cccc(C(F)(F)F)c2)CC1,-14.2%
5,NS(=O)(=O)c1ccc(-c2ccc(/C=C3\SC(=O)NC3=O)o2)cc1,19.8%
6,CCOc1ccc(CNC(=O)c2ccc(Sc3ccc(C)cc3)c(NC(C)=O)c2)cc1OC,-21.5%
7,Cc1ccc(S(=O)(=O)NC(CC(=O)N2CCc3ccccc32)c2ccco2)cc1 (centres unmarked),-8.95%
8,CCCCn1c(O)c(C(C)=NCCc2c[nH]c3ccccc23)c(=O)[nH]c1=O,-16%
9,CC1CCC(NC(=O)CN(C)S(=O)(=O)c2ccc3c(c2)c(=O)n(C)c(=O)n3C)CC1 (centres unmarked),-11.1%
10,O=C(CNS(=O)(=O)c1ccc(Br)cc1)NCc1ccncc1,1.34%
11,Cc1cccc(C)c1NC(=O)CN1C(=O)NC(C)(CCc2ccccc2)C1=O (centres unmarked),18.1%
12,Cc1cccc(S(=O)Cc2ccc(C(=O)NC3CCN(Cc4ccccc4)CC3)o2)c1 (centres unmarked),-12.9%
13,CC(=O)CCc1c(C)c2cccc(C)c2[nH]c1=O,6.89%
14,CC(Sc1nc(-c2ccc(F)cc2)cs1)C(=O)Nc1ccc(Cl)cn1 (centres unmarked),8.7%
15,CCN(CCn1cccn1)Cc1nc(-c2ccc(OC)cc2)no1,-7.61%
16,COc1cc(OC)c(NC(=O)CS(=O)(=O)Cc2nc(-c3ccc(C)cc3)oc2C)cc1Cl,11.5%
17,COc1ccc2nc(NC(=O)CCNC(=O)c3ccco3)sc2c1,-20.1%
18,O=C(O)c1cccc(NC(=O)c2cccc(S(=O)(=O)N3CCCCC3)c2)c1,-4.7%
19,COc1ccc(COC(=O)c2ccc(C)c(S(=O)(=O)N3CCOCC3)c2)cc1F,-3.65%
20,CCCN(CCC)CCNC(=O)CS(=O)Cc1nc(-c2ccc(C)cc2)oc1C (centres unmarked),-31.2%
21,C[C@H]1O[C@H](O[C@H]2[C@H](O[C@@H]3CC[C@@]4(C)C(CC[C@]5(C)C4CC=C4[C@@H]6CC(C)(C)CC[C@]6(C(=O)O[C@@H]6O[C@H](CO)[C@@H](O)[C@H](O)[C@H]6O)CC[C@]45C)C3(C)C)O[C@H](C(=O)O)[C@@H](O)[C@@H]2O)[C@@H](O)[C@@H](O)[C@@H]1O (some centres unmarked),14%

row,SMILES,"hERG current change (%, negative = inhibition) at 10uM"
1,CCCNC(=O)c1ccc2c(=O)c(O)c(-c3ccc(OC)cc3)[nH]c2c1,14.3%
2,CCC(C)NC(=O)C(Cc1ccccc1)n1cccc1 (centres unmarked),0.373%
3,CN1CCN(c2ccc([N+](=O)[O-])c3no[n+]([O-])c23)CC1,-47.1%
4,COc1cccc(NC(=O)CN(C)C(=O)CC(C)c2ccccc2)c1 (centres unmarked),16.5%
5,Cc1c(Cl)cccc1NC(=O)CNC(=O)c1cn(-c2ccccc2)nc1-c1cccnc1,-39.5%
6,O=C(/C=C/c1ccc(Cl)cc1Cl)NC(=S)Nc1ccccn1,16.9%
7,CSc1ccc(C(=S)N2CCN(CCO)CC2)cc1,-13.9%
8,Cc1ccc(S(=O)(=O)Nc2ncc(C(F)(F)F)cc2Cl)cc1,15.9%
9,Cc1ccccc1NS(=O)(=O)c1ccc(NC(=O)c2ccco2)cc1,7.68%
10,Cn1c(O)c(/C=N/N2CCOCC2)c(=O)n(C)c1=S,3.82%
11,CCOC(=O)c1ccc(CNC(=O)CSc2nnc(-c3ccncc3)o2)cc1,-1.31%
12,CNc1nc(Sc2ccc(C)cc2)cc(C(F)(F)F)n1,15.5%
13,Cc1cc(NCCN2CCOCC2)n2c(nc3ccccc32)c1C#N,-6.09%
14,Cc1cccc(C)c1NC(=O)CNC(=O)c1ccc(N2CCCC2)c([N+](=O)[O-])c1,-25.7%
15,CCOc1ccc(NC2c3ccccc3C(=O)N2c2ccc(Cl)cn2)cc1 (centres unmarked),19.2%
16,CC(=O)N1CCc2c(sc(NC(=O)C3COc4ccccc4O3)c2C(N)=O)C1 (centres unmarked),-20%
17,Cn1c(=O)[nH]c(=O)c2c1[nH]c(=S)n2Cc1ccc(Cl)cc1,23.3%
18,COc1ccccc1N1CCN(/N=C\c2cccnc2)CC1.Cl,-0.26%
19,Cc1ccc(-n2nnnc2SCC(=O)c2cc(C)n(CC3CCCO3)c2C)cc1 (centres unmarked),3.39%
20,COc1ccc(CC(=O)O/N=C(\N)c2ccc(OC)cc2)cc1,-12.9%
21,COc1cc2cc(C(=O)N[C@@H](Cc3ccccc3)C(=O)O)n(C)c2c(OC)c1OC,16%

row,SMILES,"hERG current change (%, negative = inhibition) at 10uM"
1,CCN(c1ccccc1)S(=O)(=O)c1ccc(C(C(=O)OC)C(=O)OC)c([N+](=O)[O-])c1,-7.33%
2,O=C(NCCNc1ccc([N+](=O)[O-])cc1C(F)(F)F)c1cccc(F)c1,-20.1%
3,Cc1cc(C)n2nc(C(=O)OCC(=O)Nc3ccc4c(c3)OCO4)nc2n1,-1.59%
4,CCCCCCCC1CC(CSc2ncn[nH]2)OC1=O (centres unmarked),-7.72%
5,CCCCn1c(SCC(=O)c2ccccc2)nc2ccsc2c1=O,1.38%
6,CCOc1ccc(NC(C)=O)cc1,0.631%
7,CC(NCC(O)COCCC12CC3CC(CC(C3)C1)C2)c1ccccc1.Cl (centres unmarked),-53.8%
8,CN(Cc1cnccn1)Cc1cn(Cc2ccccc2)nc1-c1ccc2c(c1)OCO2,-23%
9,COc1cccc(NC(=O)Cn2c(CCC(=O)O)ccc2-c2ccc(Cl)cc2)c1,15.7%
10,O=C(Cc1ccc([N+](=O)[O-])cc1)N1CCN(Cc2ccc3c(c2)OCO3)CC1,-45.5%
11,CCN(C(=O)COC(=O)CC(C)c1ccccc1)c1c(N)n(Cc2ccccc2)c(=O)[nH]c1=O (centres unmarked),21.5%
12,O=[N+]([O-])c1ccc(S(=O)(=O)Nc2nc(-c3ccccc3)cs2)cc1,-1.39%
13,O=C(Cn1nc(-c2ccccc2)ccc1=O)NCc1ccc2c(c1)OCO2,-9.07%
14,COc1ccccc1NS(=O)(=O)c1cccc(C(=O)N/N=C/c2ccccc2OCC(=O)O)c1,12.8%
15,Cc1ccc2sc(NNC(=O)c3cc(=O)c4ccccc4o3)nc2c1C,15.2%
16,Cc1ccc2c(c1)C(c1ccccc1)N(C(=O)c1cccc([N+](=O)[O-])c1)CC(=O)N2 (centres unmarked),-55.6%
17,O=C1c2cccc3cccc(c23)C(=O)N1Cc1ccccc1,19.4%
18,CC1CCN(C(=O)C(C)Cl)CC1 (centres unmarked),50.6%
19,O=C(N1CCOCC1)N1c2ccccc2CC(N2CCOCC2)c2ccccc21 (centres unmarked),19.9%
20,CCN(CC)CCNC(=O)c1ccc(NC(=O)Cc2ccsc2)cc1,15.6%
21,Cc1ccc(SCCNC(=S)Nc2ccc(C)cc2C)cc1,7.45%

row,SMILES,"hERG current change (%, negative = inhibition) at 10uM"
1,O=C(Nc1ccc(S(=O)(=O)N2CCOCC2)cc1)c1nn(-c2ccc(F)cc2)ccc1=O,-28.3%
2,CC(C)(C)N(NC(=O)OCc1ccccc1)C(=O)c1ccccc1Cl,-17.5%
3,Nc1cc2c(cc1C(=O)c1ccc(Cl)cc1)OCCO2,-10.2%
4,O=S(=O)(c1ccc(NC2CCCCC2)cc1)N1CCOCC1,-23.7%
5,COCCNc1nnc(Cc2ccc(Cl)cc2)c(=O)[nH]1,23.2%
6,O=C(/C=C/Sc1ccccc1)c1ccccc1,12.6%
7,CC(=O)c1ccc(N2Cc3ccccc3/C2=N\C(=O)Nc2ccccc2)cc1,-6.93%
8,Cc1cccc(C)c1NC(=O)CN(C)C(=O)c1cccc(-n2cccc2)c1,2.95%
9,COc1ccc(-n2c(C)nc3cc(C(=O)NCCN4CCOCC4)ccc32)cc1,5.01%
10,O=C(COC(=O)CCNS(=O)(=O)c1ccccc1)NNC(=O)c1ccccc1,19.3%
11,Cc1nc(SCC(=O)c2c(N)n(C3CC3)c(=O)[nH]c2=O)[nH]c(=O)c1CCO,17%
12,CCOC(=O)N1CCC(NC(=O)CS(=O)(=O)Cc2nc(-c3ccc(C)cc3)oc2C)CC1,-41.7%
13,OC(CCc1ccncc1)c1ccccc1 (centres unmarked),15.5%
14,Cc1ccc(C(=O)N/C(=C\c2cccc([N+](=O)[O-])c2)C(=O)NC(Cc2ccccc2)C(=O)O)cc1 (centres unmarked),15.3%
15,O=C(NCc1ccc2c(c1)OCO2)c1ccc(C2SCC(=O)N2Cc2ccco2)cc1 (centres unmarked),-31.9%
16,COc1ccc(OC)c(/C=N/NC(=O)CSc2cc(C)nc3c(OC)cccc23)c1,8.4%
17,CCNS(=O)(=O)c1ccc(CCC(=O)N2CCC(C)CC2)cc1,-1.02%
18,COC(=O)C1=C(C(=O)OC)SC2(S1)C(C(=O)OC)=C(C(=O)OC)SC1=C2c2cc(C)ccc2NC1(C)C,14.3%
19,Cc1ccc(C(=O)CSc2nnc(-c3c[nH]c4ccccc34)o2)cc1,5.86%
20,Cc1cc(C)cc(N(C(=O)c2cc3ccccc3oc2=O)C2C=CS(=O)(=O)C2)c1 (centres unmarked),-55.4%
